{"source": "the supplement of paper PMC8728848", "binders": {"B1": {"name": "SRA-1 (Homo sapiens), P21757 (protein)", "chain": "MEQWDHFHNQQEDTDSCSESVKFDARSMTALLPPNPKNSPSLQEKLKSFKAALIALYLLVFAVLIPLIGIVAAQLLKWETKNCSVSSTNANDITQSLTGKGNDSEEEMRFQEVFMEHMSNMEKRIQHILDMEANLMDTEHFQNFSMTTDQRFNDILLQLSTLFSSVQGHGNAIDEISKSLISLNTTLLDLQLNIENLNGKIQENTFKQQEEISKLEERVYNVSAEIMAMKEEQVHLEQEIKGEVKVLNNITNDLRLKDWEHSQTLRNITLIQGPPGPPGEKGDRGPTGESGPRGFPGPIGPPGLKGDRGAIGFPGSRGLPGYAGRPGNSGPKGQKGEKGSGNTLTPFTKVRLVGGSGPHEGRVEILHSGQWGTICDDRWEVRVGQVVCRSLGYPGVQAVHKAAHFGQGTGPIWLNEVFCFGRESSIEECKIRQWGTRACSHSEDAGVTCTL"}}, "experiment_in_all_cases": "glycan array binding signal (z-score within array); higher = stronger binding", "conditions_in_all_cases": "glycan notation: IUPAC condensed, linker removed", "key": {"[1]": {"molecular_target": "Fuc(a1-2)Gal", "summary_of_the_method": "(§1)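 From the Consortium for Functional Glycomics database, 3228 arrays were curated, keeping only those whose protein sequence was available. Binding is given as a within-array Z-score averaged across arrays sharing a protein sequence and across linkers. Negative Z-scores can be read as non-binding.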"}, "[2]": {"molecular_target": "Fuc(a1-2)Gal(b1-3)GalNAc", "summary_of_the_method": "as §1"}, "[3]": {"molecular_target": "Fuc(a1-2)Gal(b1-3)GalNAc(a1-3)[Fuc(a1-2)]Gal(b1-4)Glc", "summary_of_the_method": "as §1"}, "[4]": {"molecular_target": "Fuc(a1-2)Gal(b1-3)GalNAc(a1-3)[Fuc(a1-2)]Gal(b1-4)GlcNAc", "summary_of_the_method": "as §1"}, "[5]": {"molecular_target": "Fuc(a1-2)Gal(b1-3)GalNAc(b1-3)Gal", "summary_of_the_method": "as §1"}, "[6]": {"molecular_target": "Fuc(a1-2)Gal(b1-3)GalNAc(b1-3)Gal(a1-4)Gal(b1-4)Glc", "summary_of_the_method": "as §1"}, "[7]": {"molecular_target": "Fuc(a1-2)Gal(b1-3)GalNAc(b1-4)[Neu5Ac(a2-3)]Gal(b1-4)Glc", "summary_of_the_method": "as §1"}, "[8]": {"molecular_target": "Fuc(a1-2)Gal(b1-3)GlcNAc", "summary_of_the_method": "as §1"}, "[9]": {"molecular_target": "Fuc(a1-2)Gal(b1-3)GlcNAc(b1-2)Man(a1-3)[Fuc(a1-2)Gal(b1-3)GlcNAc(b1-2)Man(a1-6)]Man(b1-4)GlcNAc(b1-4)GlcNAc", "summary_of_the_method": "as §1"}, "[10]": {"molecular_target": "Fuc(a1-2)Gal(b1-3)GlcNAc(b1-2)Man(a1-3)[Fuc(a1-2)Gal(b1-3)GlcNAc(b1-2)Man(a1-6)]Man(b1-4)GlcNAc(b1-4)[Fuc(a1-6)]GlcNAc", "summary_of_the_method": "as §1"}, "[11]": {"molecular_target": "Fuc(a1-2)Gal(b1-3)GlcNAc(b1-3)Gal(b1-4)Glc", "summary_of_the_method": "as §1"}, "[12]": {"molecular_target": "Fuc(a1-2)Gal(b1-3)GlcNAc(b1-3)GalNAc", "summary_of_the_method": "as §1"}, "[13]": {"molecular_target": "Fuc(a1-2)Gal(b1-3)GlcNAc(b1-3)[Fuc(a1-2)Gal(b1-3)GlcNAc(b1-6)]GalNAc", "summary_of_the_method": "as §1"}, "[14]": {"molecular_target": "Fuc(a1-2)Gal(b1-3)GlcNAc(b1-3)[Gal(b1-4)GlcNAc(b1-6)]Gal(b1-4)Glc", "summary_of_the_method": "as §1"}, "[15]": {"molecular_target": "Fuc(a1-2)Gal(b1-3)GlcNAc(b1-3)[Neu5Ac(a2-6)Gal(b1-4)GlcNAc(b1-6)]Gal(b1-4)Glc", "summary_of_the_method": "as §1"}, "[16]": {"molecular_target": "Fuc(a1-2)Gal(b1-3)GlcNAc6S", "summary_of_the_method": "as §1"}, "[17]": {"molecular_target": "Fuc(a1-2)Gal(b1-3)[Fuc(a1-4)]GlcNAc", "summary_of_the_method": "as §1"}, "[18]": {"molecular_target": "Fuc(a1-2)Gal(b1-3)[Fuc(a1-4)]GlcNAc(b1-2)Man(a1-3)[Fuc(a1-2)Gal(b1-3)[Fuc(a1-4)]GlcNAc(b1-2)Man(a1-3)]Man(b1-4)GlcNAc(b1-4)GlcNAc", "summary_of_the_method": "as §1"}, "[19]": {"molecular_target": "Fuc(a1-2)Gal(b1-3)[Fuc(a1-4)]GlcNAc(b1-2)Man(a1-3)[Fuc(a1-2)Gal(b1-3)[Fuc(a1-4)]GlcNAc(b1-2)Man(a1-6)]Man(b1-4)GlcNAc(b1-4)[Fuc(a1-6)]GlcNAc(b1-4)[Fuc(a1-6)]GlcNAc", "summary_of_the_method": "as §1"}, "[20]": {"molecular_target": "Fuc(a1-2)Gal(b1-3)[Fuc(a1-4)]GlcNAc(b1-3)[Fuc(a1-3)[Gal(b1-4)]GlcNAc(b1-6)]Gal(b1-4)Glc", "summary_of_the_method": "as §1"}, "[21]": {"molecular_target": "Fuc(a1-2)Gal(b1-3)[Fuc(a1-4)]GlcNAc(b1-3)[Gal(b1-4)GlcNAc(b1-6)]Gal(b1-4)Glc", "summary_of_the_method": "as §1"}, "[22]": {"molecular_target": "Fuc(a1-2)Gal(b1-4)Fuc(a1-3)]GlcNAc(b1-2)Man(a1-3)[Fuc(a1-2)Gal(b1-4)[Fuc(a1-3)]GlcNAc(b1-2)Man(a1-6)]Man(b1-4)GlcNAc(b1-4)GlcNAc", "summary_of_the_method": "as §1"}, "[23]": {"molecular_target": "Fuc(a1-2)Gal(b1-4)Glc", "summary_of_the_method": "as §1"}, "[24]": {"molecular_target": "Fuc(a1-2)Gal(b1-4)Glc6S", "summary_of_the_method": "as §1"}, "[25]": {"molecular_target": "Fuc(a1-2)Gal(b1-4)GlcNAc", "summary_of_the_method": "as §1"}, "[26]": {"molecular_target": "Fuc(a1-2)Gal(b1-4)GlcNAc(b1-2)Man", "summary_of_the_method": "as §1"}, "[27]": {"molecular_target": "Fuc(a1-2)Gal(b1-4)GlcNAc(b1-2)Man(a1-3)[Fuc(a1-2)Gal(b1-4)GlcNAc(b1-2)Man(a1-6)]Man(b1-4)GlcNAc(b1-4)GlcNAc", "summary_of_the_method": "as §1"}, "[28]": {"molecular_target": "Fuc(a1-2)Gal(b1-4)GlcNAc(b1-2)Man(a1-3)[Fuc(a1-2)Gal(b1-4)GlcNAc(b1-2)Man(a1-6)]Man(b1-4)GlcNAc(b1-4)[Fuc(a1-6)]GlcNAc", "summary_of_the_method": "as §1"}, "[29]": {"molecular_target": "Fuc(a1-2)Gal(b1-4)GlcNAc(b1-2)[Fuc(a1-2)Gal(b1-4)GlcNAc(b1-4)]Man(a1-3)[Fuc(a1-2)Gal(b1-4)GlcNAc(b1-2)Man(a1-6)]Man(b1-4)GlcNAc(b1-4)GlcNAc", "summary_of_the_method": "as §1"}, "[30]": {"molecular_target": "Fuc(a1-2)Gal(b1-4)GlcNAc(b1-3)Gal(b1-4)GlcNAc", "summary_of_the_method": "as §1"}}, "note": "Some of the results follow."}
{"binder": "B1", "values": [{"measurement": "glycan array binding signal (z-score)", "setting": "[1]", "result": 0.252}, {"measurement": "glycan array binding signal (z-score)", "setting": "[2]", "result": -0.344}, {"measurement": "glycan array binding signal (z-score)", "setting": "[3]", "result": -0.464}, {"measurement": "glycan array binding signal (z-score)", "setting": "[4]", "result": -0.556}, {"measurement": "glycan array binding signal (z-score)", "setting": "[5]", "result": -0.273}, {"measurement": "glycan array binding signal (z-score)", "setting": "[6]", "result": -0.38}, {"measurement": "glycan array binding signal (z-score)", "setting": "[7]", "result": -0.162}, {"measurement": "glycan array binding signal (z-score)", "setting": "[8]", "result": -0.091}, {"measurement": "glycan array binding signal (z-score)", "setting": "[9]", "result": -0.292}, {"measurement": "glycan array binding signal (z-score)", "setting": "[10]", "result": 0.217}, {"measurement": "glycan array binding signal (z-score)", "setting": "[11]", "result": 0.012}, {"measurement": "glycan array binding signal (z-score)", "setting": "[12]", "result": -0.282}, {"measurement": "glycan array binding signal (z-score)", "setting": "[13]", "result": 0.179}, {"measurement": "glycan array binding signal (z-score)", "setting": "[14]", "result": -0.462}, {"measurement": "glycan array binding signal (z-score)", "setting": "[15]", "result": -0.251}, {"measurement": "glycan array binding signal (z-score)", "setting": "[16]", "result": 0.358}, {"measurement": "glycan array binding signal (z-score)", "setting": "[17]", "result": -0.524}, {"measurement": "glycan array binding signal (z-score)", "setting": "[18]", "result": 0.132}, {"measurement": "glycan array binding signal (z-score)", "setting": "[19]", "result": 0.064}, {"measurement": "glycan array binding signal (z-score)", "setting": "[20]", "result": -0.258}, {"measurement": "glycan array binding signal (z-score)", "setting": "[21]", "result": -0.462}, {"measurement": "glycan array binding signal (z-score)", "setting": "[22]", "result": -0.082}, {"measurement": "glycan array binding signal (z-score)", "setting": "[23]", "result": -0.37}, {"measurement": "glycan array binding signal (z-score)", "setting": "[24]", "result": 0.701}, {"measurement": "glycan array binding signal (z-score)", "setting": "[25]", "result": -0.467}, {"measurement": "glycan array binding signal (z-score)", "setting": "[26]", "result": 0.604}, {"measurement": "glycan array binding signal (z-score)", "setting": "[27]", "result": -0.227}, {"measurement": "glycan array binding signal (z-score)", "setting": "[28]", "result": -0.606}, {"measurement": "glycan array binding signal (z-score)", "setting": "[29]", "result": -0.168}, {"measurement": "glycan array binding signal (z-score)", "setting": "[30]", "result": -0.417}]}
